According to PubChem BioAssay AID1030 (National Center for Advancing Translational Sciences (NCATS), 2008):
In all, about 220,000 compounds went through this assay and about 16,000 (7.3%) were called active. Inconclusive means that the source gave no clear call. Such entries were picked first, then a sample of the others. The call rests on the fitted dose curve; in most records, active means well fitted inhibition curve with a large enough effect (not every such curve was filed as active); inconclusive means small, poorly fitted or top-dose-only effect, or another doubt; inactive means no such curve, though single readings can be large or run the other way. Potencies of inconclusive entries are left out as doubtful fits.

biological target: Aldehyde dehydrogenase 1A1 (Homo sapiens) (UniProt P00352); assay: qHTS Assay for Inhibitors of Aldehyde Dehydrogenase 1 (ALDH1A1); conditions: Purified ALDH1A1, NADH fluorescence, propionaldehyde substrate; series mostly up to 75.3 µM
Chain of UniProt P00352 (P00352 whole entry, looked up): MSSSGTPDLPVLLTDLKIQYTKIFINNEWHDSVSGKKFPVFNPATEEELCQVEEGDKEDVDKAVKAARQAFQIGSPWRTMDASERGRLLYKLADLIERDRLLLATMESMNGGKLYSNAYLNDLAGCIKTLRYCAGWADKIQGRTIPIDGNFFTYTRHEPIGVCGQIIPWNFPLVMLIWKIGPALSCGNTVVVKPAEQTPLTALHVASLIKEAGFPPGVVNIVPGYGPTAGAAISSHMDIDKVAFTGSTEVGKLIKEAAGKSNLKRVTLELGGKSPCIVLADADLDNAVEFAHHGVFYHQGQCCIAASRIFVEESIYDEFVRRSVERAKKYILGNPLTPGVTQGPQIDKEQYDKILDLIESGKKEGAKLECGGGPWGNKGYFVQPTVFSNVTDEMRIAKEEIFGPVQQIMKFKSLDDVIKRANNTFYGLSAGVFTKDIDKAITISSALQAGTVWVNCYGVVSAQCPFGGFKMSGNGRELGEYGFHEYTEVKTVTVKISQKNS
Potency means the concentration at half of the fitted maximal effect; tags describe the fitted curve by direction and shape.

| SMILES | Potency |
| --- | --- |
| Cc1ccc(S(=O)(=O)N2CCOCC2)cc1C(=O)NNC(=O)c1ccoc1C | inconclusive [inhibitor, partial curve, poor fit] |
| COc1cc(/C=C2\SC(=S)N(NS(=O)(=O)c3ccc(C)cc3)C2=O)ccc1O | active: 25.1 µM |
| O=C(NC1CCCCC1)NC1CCCCC1 | inconclusive [inhibitor, single point] |
| COc1ccccc1N1CCN(/N=C/c2cc(OC)c(O)c(OC)c2)CC1 | active: 15.8 µM |
| COc1ccccc1CNc1ncnc2ccc(-c3ccc(C(=O)N(C)C)cc3)cc12 | inconclusive [inhibitor, single point] |
| CC(=O)C1=C(O)C(=O)N(CCc2c[nH]c3ccccc23)C1c1ccco1 (centres undefined) | inconclusive [inhibitor, single point] |
| C#CCC(C(=O)OC)(C(=O)OC)C(C[N+](=O)[O-])c1ccccc1 (centres undefined) | inconclusive [inhibitor, single point] |
| Cc1noc(C)c1-c1nccc(N(C)Cc2ccco2)n1 | active: 14.1 µM |
| Cn1c(NCc2ccccc2)nc2c1c(=O)n(Cc1ccc(Br)cc1)c(=O)n2C | inconclusive [inhibitor, single point] |
| O=C(Nc1sc2c(c1-c1nc3ccccc3[nH]1)CCCC2)C1CC1 | inconclusive [inhibitor, partial curve] |
| Nc1nc(-c2ccc3c(c2)OCCO3)cs1 | inconclusive [inhibitor, partial curve] |
| C(=N\Nc1ccc2ccccc2n1)/c1ccc2c(c1)OCO2 | inconclusive [inhibitor, single point] |
| O=C1CC(Sc2ncccn2)C(=O)N1c1ccccc1 (centres undefined) | active: 22.4 µM |
| CCNC(=O)COC(=O)c1cc(-c2ccco2)nc2ccccc12 | inconclusive [inhibitor, partial curve] |
| Cc1ccc(NC(=O)/C=C/c2ccc3c(c2)OCO3)nc1 | inconclusive [inhibitor, single point] |
| O=[N+]([O-])c1cc(S(=O)(=O)C(F)(F)F)ccc1N1CCN(c2ccccc2)CC1 | inactive |
| Cc1cc(C)n2cc(CSc3nnc(-c4ccccc4)o3)nc2n1 | inconclusive [inhibitor, single point] |
| COc1ccc(-c2cc(C(F)(F)F)nc(S(=O)(=O)CCCC(=O)Nc3cccnc3Cl)n2)cc1OC | inconclusive [inhibitor, partial curve] |
| CCCn1c(CN2CCN(c3cccc(Cl)c3)CC2)nc2c1c(=O)n(C)c(=O)n2C | inconclusive [inhibitor, partial curve] |
